Blank lines part the entries; values can stand above or below the binder they belong to.
Tests used:
BMP9 = target: T1, BMP9 (UniProt Q9UK05 320-429); assay: Biacore SPR; protein captured by anti-Fc antibody, ligand injected
T1 construct: Ligand injected over the captured receptor protein
T1 sequence (looked up): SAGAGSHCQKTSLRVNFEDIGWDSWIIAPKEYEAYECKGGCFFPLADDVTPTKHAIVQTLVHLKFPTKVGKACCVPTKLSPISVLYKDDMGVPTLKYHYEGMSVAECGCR
Procedure: (§1) These protein complexes were independently captured in the system using an anti-Fc antibody. Ligands were injected and allowed to flow over the captured receptor protein. Results are summarized in the table below, in which ligand off-rates (kd) most indicative of effective ligand traps are denoted by bold text.

BMP10 = target: T2, BMP10 (UniProt O95393 317-424); assay: as above
T2 construct: Ligand injected over the captured receptor protein
T2 sequence (looked up): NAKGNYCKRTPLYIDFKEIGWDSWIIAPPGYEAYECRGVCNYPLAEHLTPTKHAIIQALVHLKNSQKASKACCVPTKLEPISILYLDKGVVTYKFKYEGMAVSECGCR
Procedure: as §1

- Kd (BMP9): 0.21 nM
- koff (BMP9): 0.0011 s⁻¹
- kon (BMP9): 5.1e+06 M⁻¹ s⁻¹
- Kd (BMP10): 0.069 nM
- koff (BMP10): 0.00051 s⁻¹
- kon (BMP10): 7.5e+06 M⁻¹ s⁻¹
B1: ALK1-Fc:Fc monomeric complex (Fc fusion)
chain: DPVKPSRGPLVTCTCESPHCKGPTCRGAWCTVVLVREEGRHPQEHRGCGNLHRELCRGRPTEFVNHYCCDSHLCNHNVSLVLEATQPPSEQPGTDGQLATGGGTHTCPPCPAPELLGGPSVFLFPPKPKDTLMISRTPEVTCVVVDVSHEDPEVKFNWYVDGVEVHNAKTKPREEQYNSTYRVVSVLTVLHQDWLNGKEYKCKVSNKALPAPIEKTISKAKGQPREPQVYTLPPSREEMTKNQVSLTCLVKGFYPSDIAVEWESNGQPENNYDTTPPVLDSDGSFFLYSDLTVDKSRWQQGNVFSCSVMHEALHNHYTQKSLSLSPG

- Kd (BMP9): 0.035 nM
- koff (BMP9): 0.00039 s⁻¹
- kon (BMP9): 1.1e+07 M⁻¹ s⁻¹
- Kd (BMP10): 0.033 nM
- koff (BMP10): 0.00047 s⁻¹
- kon (BMP10): 1.4e+07 M⁻¹ s⁻¹
B2: ENG([…])-Fc:ALK1-Fc heterodimer (Fc fusion)
chain 1: ETVHCDLQPVGPERDEVTYTTSQVSKGCVAQAPNAILEVHVLFLEFPTGPSQLELTLQASKQNGTWPREVLLVLSVNSSVFLHLQALGIPLHLAYNSSLVTFQEPPGVNTTELPSFPKTQILEWAAERGPITSAAELNDPQSILLRLGQAQGSLSFCMLEASQDMGRTLEWRPRTPALVRGCHLEGVAGHKEAHILRVLPGHSAGPRTVTVKVELSCAPGDLDAVLILQGPPYVSWLIDANHNMQIWTTGEYSFKIFPEKNIRGFKLPDTPQGLLGEARMLNASIVASFVELPLASIVSLHASSCGGRLQTSPAPIQTTPPTGGGTHTCPPCPAPELLGGPSVFLFPPKPKDTLMISRTPEVTCVVVDVSHEDPEVKFNWYVDGVEVHNAKTKPREEQYNSTYRVVSVLTVLHQDWLNGKEYKCKVSNKALPAPIEKTISKAKGQPREPQVYTLPPSRKEMTKNQVSLTCLVKGFYPSDIAVEWESNGQPENNYKTTPPVLKSDGSFFLYSKLTVDKSRWQQGNVFSCSVMHEALHNHYTQKSLSLSPGK
chain 2: [in this place about 100 residues][in this place about 250 residues]
notes: also called ENG-Fc:ALK1-Fc heterodimer

Reference: patent US20200071382A1 (published 2020)
